The chains are these.
T1: α11β1 expressed on the surface of CHO-K1 cells (Homo sapiens, UniProt Q9UKX5)
T1 construct: expressed in transfected cells; host or cells: CHO-K1
T1 sequence (Q9UKX5 23-1188): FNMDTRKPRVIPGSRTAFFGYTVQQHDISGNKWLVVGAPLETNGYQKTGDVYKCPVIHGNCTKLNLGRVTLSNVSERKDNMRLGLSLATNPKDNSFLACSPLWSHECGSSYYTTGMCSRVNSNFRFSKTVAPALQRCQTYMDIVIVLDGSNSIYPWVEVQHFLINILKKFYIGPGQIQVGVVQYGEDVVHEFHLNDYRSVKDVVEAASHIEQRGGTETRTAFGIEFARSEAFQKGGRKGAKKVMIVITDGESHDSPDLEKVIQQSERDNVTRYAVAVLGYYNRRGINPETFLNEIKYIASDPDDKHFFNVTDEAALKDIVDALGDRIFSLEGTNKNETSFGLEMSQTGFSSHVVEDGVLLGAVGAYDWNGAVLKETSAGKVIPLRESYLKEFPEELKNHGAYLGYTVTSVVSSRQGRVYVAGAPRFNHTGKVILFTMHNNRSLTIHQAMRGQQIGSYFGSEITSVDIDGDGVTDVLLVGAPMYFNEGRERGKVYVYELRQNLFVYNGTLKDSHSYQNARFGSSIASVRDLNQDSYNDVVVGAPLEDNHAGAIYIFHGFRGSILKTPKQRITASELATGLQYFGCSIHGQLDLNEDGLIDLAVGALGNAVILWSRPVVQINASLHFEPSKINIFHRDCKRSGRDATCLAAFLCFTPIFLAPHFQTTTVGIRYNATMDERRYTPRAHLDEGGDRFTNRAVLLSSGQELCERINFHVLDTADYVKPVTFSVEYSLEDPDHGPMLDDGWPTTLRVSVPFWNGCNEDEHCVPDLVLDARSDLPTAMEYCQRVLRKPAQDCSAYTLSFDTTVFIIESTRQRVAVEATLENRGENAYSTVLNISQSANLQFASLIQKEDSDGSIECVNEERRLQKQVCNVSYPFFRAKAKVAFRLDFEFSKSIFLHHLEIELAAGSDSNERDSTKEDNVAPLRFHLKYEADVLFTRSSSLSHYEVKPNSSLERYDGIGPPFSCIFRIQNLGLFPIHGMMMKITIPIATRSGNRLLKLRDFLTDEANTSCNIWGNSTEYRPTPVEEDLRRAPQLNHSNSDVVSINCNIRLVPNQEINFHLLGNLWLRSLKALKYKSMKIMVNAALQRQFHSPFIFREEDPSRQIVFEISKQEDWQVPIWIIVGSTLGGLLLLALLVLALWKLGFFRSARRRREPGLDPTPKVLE

B1: 6-P20: mouse anti-α11β1 mAb; VH SEQ ID NO: 141, VL SEQ ID NO: 142 (antibody, V domains shown)
VH: EVQLQQSGPELVKPGASVKISCKASGYTFTDYYMNWVKQSHGRSLELIGDINPNNGGSNFNQKFRGKATLTVDKSSSTAYMELRSLTSEDSAIYYCARMGYWGQGTLVTVSA
VL: DVVMTQTPLTLSVTIGQPASISCKSSQSLLHSDGKTYLNWMFQRPGQSPKRLIYLVSKLDSGVPYRFTGGGSGTDFTLQISRVETEDLGVYYCWQGTHFPRTFGGGTKLEIK
B2: 8-G15: mouse anti-α11β1 mAb; VH SEQ ID NO: 107, VL SEQ ID NO: 108 (antibody, V domains shown)
VH: EVQLQQSGPELVKPGASVRISCKASGYTFTDYYIHWVKQKPGQGLECIGEIYPGTDNTYYSKKFRGKATLTADKSSDTAYMQLSSLTSEDSAVYFCARGDYYRGYFDVWGAGTTVTVSS
VL: DVVMTQTSLTLSVTIGQPASISCKSSQSLLHSNGKTYLNWLLQRPGQSPKFLIYLVSKLESGVPDRFSGSGSGTDFTLKISRVEAEDLGVYYCLQSTHFPWTFGGGTKLEIK
B3: 6-A15: mouse anti-α11β1 mAb; VH SEQ ID NO: 137, VL SEQ ID NO: 138 (antibody, V domains shown)
VH: EVQLQQSGPELVKPGASVKMSCKASGYTITDYYMMWLKQSHGKSLEWIGDINPYTGGTSYNQKFKGKATLTVDKSSSTAYLQLHSLTSEDSAVYYCARGAYWGQGTTLTVSS
VL: B1 VL with H31D, M41L, F42L, Y65D, G70S, Q79K, T85A, R101Y
B4: 10-K10: mouse anti-α11β1 mAb; VH SEQ ID NO: 139, VL SEQ ID NO: 140 (antibody, V domains shown)
VH: B3 VH with L81M, H84N
VL: B1 VL with H31D, M41L, F42L, Y65D, G70S, Q79K, T85A, R101Y
B5: 2-A3: mouse anti-α11β1 mAb; VH SEQ ID NO: 131, VL SEQ ID NO: 132 (antibody, V domains shown)
VH: EVQLQQSGPELVKPGASVKMSCKASGYTFTDYYMMWVKQSHGKSLEWIGDINPYNGGSSYNPKFKGRATLTVDKSSSTAYMQLNSLTSEDSAVYYCARGTYWGQGTLVTVSA
VL: B1 VL with H31D, D33A, M41L, F42L, I53M, Y65D, G70S, Q79K, T85A, R101Y
B6: 7-O8: mouse anti-α11β1 mAb; VH SEQ ID NO: 143, VL SEQ ID NO: 144 (antibody, V domains shown)
VH: EVQLQQSGPELVKPGASVKMSCKASGYTFTDYYIHWVKQKPGQGLEYIGEIYPGSGNTYYNGKFRGKATLTADKSSSTAYMQLSSLTSEDSAVYFCGSGYFDYWGQGTTLTVSS
VL: B2 VL with S8P, H31Y, R44S, F51L, I80L, L94V, S96G, W101F, G105S
B7: 6-O17: mouse anti-α11β1 mAb; VH SEQ ID NO: 133, VL SEQ ID NO: 134 (antibody, V domains shown)
VH: QVQLQQPGAELVKPGASVKLSCKASGYTFTSYWMHWIKQRPGQGLEWIGEINPSNGGSNYNEKFKSKATLTVDKSSSTAYMQLSSLTSEDSAVYHCKSRGYWGQGTTLTVSS
VL: DVVMTQTPLTLSVTIGQPASISCKSSQSLLDSYGKTYLNWLLQRPGQSPKRLIYLVSKLDSGVPDRFTGSGSGTDFTLKISRVEAEDLGIYYCWQGTHFPHTFGSGTKLEIK

These results are taken from US12460006B2, “Antibodies against integrin alpha 11 beta 1” (Momenta Pharmaceuticals, Inc., priority 2019, dated 2025).

Substitutions are numbered along the chain they refer to.

Chain of mouse α11β1 (P61622 23-1141 limits assumed): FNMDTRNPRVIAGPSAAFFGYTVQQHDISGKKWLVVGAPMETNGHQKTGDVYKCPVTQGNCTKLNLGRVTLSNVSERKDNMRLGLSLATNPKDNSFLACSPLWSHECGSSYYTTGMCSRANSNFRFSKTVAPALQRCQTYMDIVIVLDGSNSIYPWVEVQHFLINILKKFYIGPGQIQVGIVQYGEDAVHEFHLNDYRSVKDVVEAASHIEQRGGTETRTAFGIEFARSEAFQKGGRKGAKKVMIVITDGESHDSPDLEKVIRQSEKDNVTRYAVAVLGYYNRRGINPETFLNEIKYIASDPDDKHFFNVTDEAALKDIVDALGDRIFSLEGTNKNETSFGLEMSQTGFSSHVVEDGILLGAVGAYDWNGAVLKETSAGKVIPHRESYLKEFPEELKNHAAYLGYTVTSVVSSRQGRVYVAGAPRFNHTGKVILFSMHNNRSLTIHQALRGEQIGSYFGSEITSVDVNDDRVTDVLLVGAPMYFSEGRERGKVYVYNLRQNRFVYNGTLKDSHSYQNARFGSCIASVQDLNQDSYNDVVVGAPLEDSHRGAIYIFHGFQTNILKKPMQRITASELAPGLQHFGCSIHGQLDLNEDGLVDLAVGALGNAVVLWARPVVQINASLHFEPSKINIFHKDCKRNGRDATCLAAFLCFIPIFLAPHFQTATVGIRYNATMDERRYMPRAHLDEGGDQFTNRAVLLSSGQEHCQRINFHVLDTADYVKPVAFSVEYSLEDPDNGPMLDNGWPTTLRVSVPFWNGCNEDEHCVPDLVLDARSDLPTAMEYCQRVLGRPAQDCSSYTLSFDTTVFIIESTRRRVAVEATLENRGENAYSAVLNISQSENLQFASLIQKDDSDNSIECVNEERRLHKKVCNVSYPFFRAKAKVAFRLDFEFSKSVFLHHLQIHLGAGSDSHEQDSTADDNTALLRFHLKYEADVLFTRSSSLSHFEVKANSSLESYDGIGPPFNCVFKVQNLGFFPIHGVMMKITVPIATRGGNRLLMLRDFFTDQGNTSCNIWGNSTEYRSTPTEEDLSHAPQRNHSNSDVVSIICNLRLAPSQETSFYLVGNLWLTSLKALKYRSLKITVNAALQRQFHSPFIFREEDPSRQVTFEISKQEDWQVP
Chain of mouse α11β1 (P09055 21-728 partner limits assumed): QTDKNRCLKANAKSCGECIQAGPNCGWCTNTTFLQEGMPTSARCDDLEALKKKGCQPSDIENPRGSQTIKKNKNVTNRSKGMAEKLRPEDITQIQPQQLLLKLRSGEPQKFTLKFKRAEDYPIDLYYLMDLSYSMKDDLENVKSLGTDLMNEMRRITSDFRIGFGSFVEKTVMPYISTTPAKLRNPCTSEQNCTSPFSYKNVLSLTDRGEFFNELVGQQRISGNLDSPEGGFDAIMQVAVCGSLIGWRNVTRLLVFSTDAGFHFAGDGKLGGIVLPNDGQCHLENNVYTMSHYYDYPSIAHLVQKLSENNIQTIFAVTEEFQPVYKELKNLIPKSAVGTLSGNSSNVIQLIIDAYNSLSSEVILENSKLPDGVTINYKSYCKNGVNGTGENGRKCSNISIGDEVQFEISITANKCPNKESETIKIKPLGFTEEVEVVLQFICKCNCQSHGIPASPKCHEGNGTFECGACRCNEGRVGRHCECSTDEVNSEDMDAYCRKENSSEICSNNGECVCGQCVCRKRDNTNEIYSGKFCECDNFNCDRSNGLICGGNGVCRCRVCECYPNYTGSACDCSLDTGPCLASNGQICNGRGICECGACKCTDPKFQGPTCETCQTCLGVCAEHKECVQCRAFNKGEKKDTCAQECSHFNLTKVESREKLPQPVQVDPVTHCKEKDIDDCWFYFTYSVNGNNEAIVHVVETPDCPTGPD

The first assay has as its target mouse α11β1 (Mus musculus, UniProt P61622). Briefly: ELISA binding to recombinant mouse α11β1. The settings on record: binding Yes/No. The method, then: 0.25 μg/mL of target antigen (recombinant human or mouse α11β1) was plated in a 96-well plate over night at 4° C. Plates were washed (PBS with 0.1% Tween-20), blocked (PBS with 2% BSA and 0.05% Tween-20) for 1 hour at room temperature and incubated with a range of antibody concentrations for 1 hour at room temperature. Subsequently, plates were washed and incubated with biotinylated anti-rabbit/mouse/human IgG in a 1:1000 dilution buffer and incubated for 1 hour at room temperature. After washing the plates, Streptavidin HRP was added at 1:200 in dilution buffer and incubated for 1 hour at room temperature. Ultra TMB ELISA substrate solution was added and the plates incubated for 5 minutes on a plate shaker. The reaction was stopped by adding stop solution to each well and plates were read at 450 nm.
Regarding B1, the “Murine α11β1 ELISA” value is “No”.

With B2, the “Murine α11β1 ELISA” value is on record as “No”.

B3: the “Murine α11β1 ELISA” value is recorded as “Yes/Low”.

Consider B4, for which the “Murine α11β1 ELISA” value was “Yes/Low”.

Turning to B5, the “Murine α11β1 ELISA” value is reported as “Yes/Low”.

As to B6, the “Murine α11β1 ELISA” value is recorded as “Yes/Low”.

Consider B7, for which the “Murine α11β1 ELISA” value is “Yes/Low”.

The next assay addresses T1, α11β1 expressed on the surface of CHO-K1 cells. Briefly: FACS antibody binding to CHO-K1 cells expressing human α11. The settings on record: FACS. The method, then:
200,000 cells (wild-type CHO-K1 cells or CHO-K1 cells expressing human α11) were incubated with each antibody at desired concentrations in FACS buffer for 30 min at 4° C. Then, the cells were washed with FACS buffer and incubated with secondary antibody at 1:100 dilution for 30 minutes at 4° C. Cells were then washed and fixed with 1% PFA in PBS for 20 minutes at room temperature; washed again and read on a cytometer in FACS buffer.
Since integrins are large, transmembrane receptors that exist in different conformational shapes, experiments were performed to confirm that the novel antibodies also bound cell-expressed α11β1. A CHO-K1 cell line that endogenously expressed high levels of the β1 subunit was engineered to stably express human α11 (CHO-K1 hu α11).
Binding EC50 was estimated using data from Fluorescence-activated cell sorting (FACS) performed with CHO-K1 hu α11β1 cells.
In the case of B2, the “CHO-K1 binding EC50 (in words)” value is given as “low nanomolar range”.

The same assay, now with this note: binding Yes/No.
In the case of B1, the “CHO-K1 FACS” value is reported as “Yes”.

As to B2, the “CHO-K1 FACS” value is on record as “Yes”.

For B3, the “CHO-K1 FACS” value is recorded as “No”.

Consider B4, for which the “CHO-K1 FACS” value is on record as “No”.

Regarding B5, the “CHO-K1 FACS” value was “No”.

Take B6: the “CHO-K1 FACS” value is “Yes”.

Consider B7, for which the “CHO-K1 FACS” value is reported as “Yes”.

The subject of a further assay is human pulmonary fibroblasts (HPFs). Briefly: FACS antibody binding to human pulmonary fibroblasts. The settings on record: binding Yes/No. The method, then: (§1) Human Pulmonary Fibroblasts (ScienCell) were cultured in complete Fibroblast Growth Medium (ScienCell) until 80% confluent in T-150 flasks. Cells were washed and harvested using Accutase. Cells were seeded into T-150 flasks at 7,500 cells/cm^2 in complete FGF and cultured for 72 hours. Cells were then washed and starved in serum reduced medium for 24 hours. After starvation, cells were treated with TGFβ-1 (R&D Systems) for 72 hours. Cells were harvested using Accutase and seeded in 96-well conical bottom plates. Cells were blocked with Heat Inactived Fetal Bovine Serum (Gibco) for 30 minutes at 4° C. Cells were then incubated with anti-α11 antibodies at the doses described in each figure for 30 minutes at 4° C. A human anti-α11 antibody (Creative BioLabs) was included as a positive control as well as the appropriate IgG isotype negative controls. Cells were washed twice and incubated with PE conjugated secondary antibodies specific to the IgG class of the anti-α11 antibodies being tested for 30 minutes at 4° C. Cells were washed twice and fixed in 1% PFA for 30 minutes. Cells were acquired on a FACS Verse […]. Data were analyzed by gating on single cells and determining the geometric Mean Fluorescence Intensity (gMFI) in the PE channel for each sample.
(§2) Binding to a physiologically relevant primary human cell type was also tested. Human pulmonary fibroblasts (HPF) and TGFβ treatment were used to induce a fibroblast-to-myofibroblast transition (FMT), giving rise to myofibroblasts (MF). […] Additionally, HPFs express α11 and α2β1, other collagen binding receptors, which means that HPFs can be to test cross-reactivity of antibodies of interest.
As for B1, the “HPF FACS” value is “No”.

As for B2, the “HPF FACS” value is recorded as “No”.

For the molecule B3, the “HPF FACS” value was “No”.

B4: the “HPF FACS” value is “No”.

Consider B5, for which the “HPF FACS” value is “No”.

As to B6, the “HPF FACS” value is “No”.

Regarding B7, the “HPF FACS” value was “No”.

The next assay deals with myofibroblasts (MF). Briefly: FACS antibody binding to myofibroblasts. Set-up: species or system human. The note with it: binding Yes/No. The method, then: as §1, §2
In the case of B1, the “MF FACS” value is on record as “No”.

Turning to B2, the “MF FACS” value is “Yes”.

Consider B3, for which the “MF FACS” value was “No”.

Turning to B4, the “MF FACS” value is “Yes”.

On to B5, for which the “MF FACS” value is listed as “No”.

Consider B6, for which the “MF FACS” value was “Yes”.

B7: the “MF FACS” value is “Yes”.
